Hit rate of the full screen: of about 48,000 compounds, about 450 (0.94%) were called active. About 19% were inconclusive and are not listed. Calls come from the whole dose curve; as a rule, active = well fitted inhibition curve with a large enough effect; inconclusive = small, poorly fitted or top-dose-only effect; inactive = no such curve, though single readings can be large or run the other way. The list shows a part of the results.
experiment: Primary qHTS for Identification of Small Molecule Inhibitors of Huntingtin Promoter Activity; conditions: HEK293 HTT promoter firefly luciferase reporter (activity 0% = vehicle and -100% = no light), 24 h; series mostly up to 57.5 µM; activity change, negative = inhibition: at the top concentration; note: nearly all actives have a fitted effect of over 50% in size
In short: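 Firefly luciferase signal from promoter-reporter HEK293 cells was scaled between vehicle (0%) and zero RLU (-100%). Compounds were tested at final concentrations of up to 57.5 uM over 24 h at 37 degrees C. PTC124 at 50 uM final served as control inhibitor.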

Activity change, negative = inhibition, inactive:
Cc1cccc(OCC(=O)NCc2ccc3c(c2)CCN3C(=O)c2ccccc2)c1 -14.6%
COc1ccc(/C=C/C(=O)Nc2ccc(Cl)c(Cl)c2)cc1OC 14.6%
CCOc1ccc(NC(=O)c2cc(CN3CCCC3)on2)cc1 1.69%
Cc1c(C(=O)NCc2ccc(F)cc2)sc2nc3n(c(=O)c12)CCC3 1.96%
COc1ccc(-c2ccc(=O)n(CC(=O)Nc3ccc(N(C)C)cc3)n2)cc1 0%
CSc1ccc(C2c3c(oc4ccc(F)cc4c3=O)C(=O)N2c2ccc(C)cn2)cc1 (stereo not given) 0.901%
Cc1cccc(N(C)C(=O)C2CCN(S(=O)(=O)c3cccc4nonc34)CC2)c1 7.66%
Cc1ccc2nc(Nc3ccc(Br)cc3)nc(-c3ccccc3)c2c1 -7.54%
CCOc1ccc2oc(=O)cc(CN3CCN(C(=O)c4ccc(Cl)cc4)CC3)c2c1 -25.1%
CCCCc1nn2c(=O)cc(COC(=O)CNC(=O)c3ccccc3C)nc2s1 -17.2%
CCN(CC)CCOc1ccc(C(O)(Cc2ccc(Cl)cc2)c2ccc(C)cc2)cc1 (stereo not given) 5.56%
CCc1cccc(CC)c1NC(=O)Cc1csc(C)n1 -8.42%
Cc1cccc(CN2C(=O)c3ccccc3Sc3ccc(C(=O)NCCc4ccccc4)cc32)c1 -24%
Cc1cc(Nc2cccc(F)c2)n2nc(-c3ccco3)nc2n1 -8.64%
NC(=O)C1(N2CCCCC2)CCN(C(=O)Nc2ccc(Cl)c(Cl)c2)CC1 -12.4%
COc1cccc(NC(=O)c2sc3nc(C)c(C(=O)Nc4ccc(C)cc4C)c(-c4ccc(Br)cc4)c3c2N)c1 -32.9%
Cc1cc(Cl)ccc1NC(=O)C1CCN(S(=O)(=O)c2ccc3[nH]c(=O)ccc3c2)CC1 -9.2%
COc1ccc(CNC(=O)c2cc3sccc3n2C)cc1 -1.33%
Cc1ccc2nc(SC(Cc3cc(Cl)ccc3Cl)C(=O)O)[nH]c2c1 (stereo not given) -1.39%
Cc1cccc(Cn2c(=O)n(CCc3ccccc3)c(=O)c3sc4ccccc4c32)c1 -6.61%
Cc1ccc(CCNC(=O)CCSCc2ccccc2F)cc1 -11%
CCOC(=O)c1cc(-c2ccccc2)nn1Cc1ccccc1 72.7%
O=C(CCOc1ccccc1)N(Cc1cccnc1)c1nc2c(Cl)cccc2s1 -24.3%
O=S(=O)(Nc1c(F)cccc1F)c1ccc2c(c1)OCCO2 -4.31%
COc1ccc(C)cc1NC(=O)C(CCSC)NS(=O)(=O)c1ccc2c(c1)oc(=O)n2C (stereo not given) -32.9%
CCn1nnc2cc(C(=O)Nc3cccc(C(F)(F)F)c3)ccc21 20.6%
CCOC(=O)N1CCc2c(sc3c2c(=O)n(Cc2ccccc2)c(=O)n3CC(=O)Nc2ccccc2F)C1 -7.92%
CC(C)NC(=O)c1cnc2sc(N3CCCCCC3)nn2c1=O 10.9%
CCOC(=O)c1c(C)[nH]c(CCC(=O)Nc2ccc(N(CC)CC)cc2C)c1C -16.4%
COc1ccc(CN(C(=O)Nc2ccccc2)c2ccccn2)cc1OC 7.44%
Cc1ccc(S(=O)(=O)N(Cc2nc(-c3ccc(Cl)cc3)no2)C2CCCCC2)cc1 -25.9%
CCOCCCNC(=O)N1CCN(S(=O)(=O)c2ccc3c(ccn3C)c2)CC1 -15.2%
COc1ccc(-c2noc(-c3ccc(N4CCOCC4)c([N+](=O)[O-])c3)n2)cc1OC -5.78%
COc1ccccc1N1CCN(CCC(=O)Nc2cccc(F)c2)CC1 -27.7%
Cn1c(=O)c2c(SCC(=O)NCC3CCCO3)nc(-c3ccccc3F)nc2n(C)c1=O (stereo not given) -7.87%
COc1cccc(/C=C(\C#N)c2nc3ccc(C)cc3[nH]2)c1 25.7%
CCOC(=O)c1ccc(NS(=O)(=O)c2cc3c(cc2C)n(C)c(=O)c(=O)n3C)cc1 -16.1%
CCOc1ccc(NC(=O)CSc2oc(-c3cccs3)nc2S(=O)(=O)c2ccc(Cl)cc2)cc1 -12.6%
O=C(Cn1c(=O)n(-c2ccccc2)c(=O)c2ccc(C(=O)NCc3ccc4c(c3)OCO4)cc21)Nc1ccc(Br)cc1F -7.08%
CCOc1ccc(CNC(=O)c2cnc(SC)nc2CC)cc1 -2.59%
CCCCSCCCNC(=O)CN1C(=O)COc2ccc(S(=O)(=O)N3CCCC3)cc21 -20.8%
Cc1cc(NC(=O)c2ccc(Cl)c(Cl)c2)ccc1-c1cc2ccccc2oc1=O -1.77%
COc1ccc(NC(=O)Cn2c(=O)n(-c3ccccc3)c(=O)c3ccc(C(=O)NCc4ccc5c(c4)OCO5)cc32)cc1 -13.2%
CC1(C)C(=O)N(CC(=O)Nc2ccc(OC(F)(F)F)cc2)c2ccccc21 -27.6%
CCCSc1ncc(Cl)c(C(=O)Nc2ccc(CC)cc2)n1 -14.4%
Cc1ccc(CNC(=O)CSc2nc3ccsc3c(=O)n2-c2ccc(C(=O)O)cc2)cc1 -7.26%
CCN(CCCNC(=O)c1cc2cc3cc(OC)ccc3nc2s1)c1ccccc1 -1.34%
CCOC(=O)C1CCC(CN(Cc2c(Cl)cccc2Cl)S(=O)(=O)c2ccc(F)c(C)c2)CC1 (stereo not given) -24.2%
COc1cccc(NC(=O)CCNS(=O)(=O)c2ccc3c(c2)CCCC(=O)N3)c1 -6.05%
O=C(CCn1cccn1)Nc1ccc(Br)cc1F 24.8%
O=c1c(NCc2cccs2)nccn1-c1ccc(F)cc1 41%
COc1cccc(NC(=O)CN(CCc2ccccc2)S(=O)(=O)c2ccc(Cl)cc2)c1 -18.2%
Cc1nc2ccccc2n1CCc1nc2c3ccccc3nc(SCc3ccc(C#N)cc3)n2n1 15.7%
Cc1cccc(-c2nc3c4ccccc4nc(NCCc4ccccc4)n3n2)c1 41.8%
Nc1ccn([C@@H]2O[C@H](CO)[C@@H](O)C2(F)F)c(=O)n1 -22.3%
O=C(COCc1cc(-c2ccc(F)cc2)on1)Nc1cc(F)ccc1F -15.6%
O=S(=O)(NCc1nc2cccnc2n1Cc1ccccc1Cl)c1ccc2c(c1)CCCC2 -15.3%
CCN(CC)CCCNC(=O)Cc1csc2nc(-c3ccc(Cl)cc3)cn12 -11.4%
CCc1cc2c(cc3c(=O)n(CCCC(=O)NCc4cccc(Cl)c4)ncn32)s1 -31.1%
Cc1cc2c(n1-c1ccc(C(=O)NCc3ccccc3Cl)cc1)CCCC2 27.5%
COc1ccccc1N1CCN(C(=O)c2c(C)oc3ncn(C)c(=O)c23)CC1 10.5%
O=C(CCSCc1ccccc1Cl)NCc1ccc(F)cc1Cl -14.6%
Cc1cccc(CCNC(=O)c2cc3c(=O)n(C)c4ccccc4c3n2C)c1 5.35%
CC(C)c1cnc2c(c1SCC(=O)NCc1ccccc1Cl)c(=O)n(C)c(=O)n2C -1.65%
O=C(c1ccc2c(c1)N(Cc1cccc(F)c1)C(=O)c1ccccc1S2)N1CCCC1 9.41%
COc1ccc(C(CC(=O)Nc2ccc(C(C)=O)cc2)N2Cc3ccccc3C2=O)cc1 (stereo not given) 65.7%
Cc1cccc2c1-c1sc(C(=O)N(C)c3cccc(Cl)c3)cc1CO2 -25.2%
COc1ccc(NC(=O)NC2COc3ccccc3C2)cc1Cl (stereo not given) 23.2%
Cc1ccc(CN2C(=O)c3ccccc3CC2(C)C(=O)NC2CCCCC2)cc1 (stereo not given) -16.8%
Cc1cccc(N2CCN(C(=O)c3noc4c3COc3ccc(C)cc3-4)CC2C)c1 (stereo not given) -9.09%
CCOc1ccccc1C(=O)NC1(C(F)(F)F)C(=O)Nc2c1c(=O)[nH]c(=O)n2-c1ccc(F)cc1 (stereo not given) -10.5%
CSc1ccc(CCNC(=O)CCc2c(C)nc3ncnn3c2C)cc1 -11%
COc1ccccc1N1CCN(CCN(C(=O)C2CCCCC2)c2ccccn2)CC1 -11.1%
CN1C(=O)CC(c2ccccc2)C1=O (stereo not given) -7.2%
OC[C@H]1O[C@@H](Oc2cc(O)cc(C=Cc3ccc(O)cc3)c2)[C@H](O)[C@@H](O)[C@H]1O 6.01%
Cc1ccc(C(=O)Nc2cccc3cccnc23)cc1Cl 58.2%
COC(=O)c1c(-c2cccs2)csc1NC(=O)COc1ccc(C)cc1 -12.2%
CN1CCN(c2ncc3c(n2)CCN(Cc2ccc(Br)s2)C3)CC1 -16.7%
Cc1cccn2c(=O)c(C(=O)NCc3cccc(F)c3)cnc12 4.02%
Cc1ccc(Cl)cc1Nc1nn2c(=O)c3ccc(C(=O)NCc4ccc(F)cc4)cc3nc2s1 -13.7%
CCCOc1ccc(-c2nc(SCC(=O)c3ccc(Cl)cc3)n[nH]2)cc1 -6.21%
CC(=O)c1ccc(N2CCN(C(=O)C3CCN(S(=O)(=O)c4cn(C)cn4)CC3)CC2)cc1 -0.501%
Cn1c(=O)c2sccc2n2c(CCC(=O)NCc3ccc(Cl)cc3)nnc12 -3%
CN(C)CCN(Cc1ccccc1)c1ccccn1 8.65%
COc1ccc(NC(=O)c2oc3ccccc3c2NC(=O)Cc2coc3c(C)c(C)ccc23)cc1 -6.86%
COc1ccc(-c2nc3cc(NC(=O)CSc4ccc(C)cc4)ccc3o2)cc1 12.6%
Fc1ccc(Cl)cc1-c1nc(Nc2ccncc2)c2nccnc2n1 -0.449%
CCc1ccc(NC(=O)Cn2ccn(-c3ccc(C)c(C)c3)c(=O)c2=O)cc1 22.4%
Cc1ccc(S(=O)(=O)c2nc(S(=O)(=O)c3ccccc3)sc2NCCCOC(C)C)cc1 -26%
CCOc1ccc(NC(=O)/C(C#N)=C\c2ccc(-c3ccc(Cl)cc3)o2)cc1 -3.9%
Cc1c(Cl)cccc1NC(=O)CCS(=O)(=O)c1ccc2c(c1)CC(=O)N2C -1.83%
O=C(CSc1n[nH]c(-c2ccc(F)cc2)n1)NCCc1ccccc1 -7.04%
CCN(CC)CCNC(=O)c1c2c(nc3ccccc13)C(=O)N(C1CCCCC1)C2 -8.07%
Cc1ccc(S(=O)(=O)NCCc2cn3ccsc3n2)c(C)c1 -4.43%
COc1cccc(NC(=O)Cn2cc(C(=O)c3ccc(C)cc3)c(=O)c3cc(OC)ccc32)c1 -17.9%
Cc1ccccc1NC(=O)Cn1c(=O)n(Cc2ccc3c(c2)OCO3)c(=O)c2ccccc21 -15.8%
CCc1nc2nc(C)cc(Nc3cccc(C)c3C)n2n1 -26.7%
Cc1cc2ccccc2n1CCNC(=O)c1ccc(Br)cc1 -18%
COc1ccc(CNC(=O)CCc2c(C)c3cc4c(C)c(C)oc4cc3oc2=O)cc1OC -3.31%
CC(C)c1ccc(OCC(=O)N(Cc2cccs2)C2CCS(=O)(=O)C2)cc1 (stereo not given) -23.2%

Source: PubChem BioAssay AID1508623 (National Center for Advancing Translational Sciences (NCATS), 2021)
